Test results: ChEMBL document CHEMBL4888484, “Replenishing the malaria drug discovery pipeline: Screening and hit evaluation of the MMV Hit Generation Library 1 (HGL1) against asexual blood stage Plasmodium falciparum ,using a nano luciferase reporter read-out” (2022)
Several values for one entry are separate records, joined by “and”; a condition that tells them apart may be missing. Equal values may be shown once. Out of some 150,000 compounds screened, about 540 (0.36%) showed an effect of 50% or more. This is one part of the list.

Test system: Plasmodium falciparum
Assay: Primary screen in NF54 nanoGlo assay, in single point, at 2uM, 72h; a lower Z score goes with more inhibition
Assay type: functional, Erythrocyte
Details: timepoint 72 hour

Row | Compound | % Inhibition | Z score | % Inhibition (2 µM)
1 | O=C(c1ccc2c(c1)n(CC1CC1)c(=O)n2C1CCCCC1)N1CCC(F)(F)CC1 | -4% | 0.77 | 
2 | CCN(Cc1cnn(C)c1)c1ncnc(C)c1F | -6% | 1.28 | 
3 | N[C@H]1C[C@H](c2cc(NCc3cccc(Cl)c3F)ncn2)C1 | -8% | 1.5 | 
4 | Cc1noc(C)c1CCC(=O)N1C2CCC1CC(n1ccnn1)C2 (stereo unspecified) | -3% | 0.45 | 
5 | O=C(N[C@@H]1CN(Cc2ccc3[nH]ccc3c2)CC[C@@H]1CO)c1ccccc1 | -12% | 1.6 | 
6 | Cc1ccccc1Cn1c(-c2ccccn2)nnc1N1CCN(Cc2ccccc2)CC1 | -2% | 0.31 | 
7 | C[C@@H](c1ccccn1)N(C)c1cc(N2CCC(C)(O)CC2)ncn1 | -6% | 1.21 | 
8 | C=CCNCC#CCOc1ccc(CC)cc1 | 17% | -1.82 | 
9 | CCOC(=O)c1cnn2ccc(NC(=O)c3cn(C)nn3)cc12 | -14% | 2.18 | 
10 | CCC1(CC)CN(c2ncnc(N)c2Cl)CCS1(=O)=O | 4% | -0.66 | 
11 | COc1ccc(NC(=O)c2n[nH]c3c2CCC3)cn1 |  |  | 3% and -2%
12 | CN(C)c1nc2ccc(NCc3cc4c(cc3O)OCO4)cc2o1 | 27% | -3.97 | 
13 | CN(CCC(=O)Nc1ccc2c(c1)CCC2)CC(=O)Nc1ccc(Cl)cc1 | -9% | 0.8 | 
14 | CCn1nc(CO)c2c1CCN(C/C=C/c1ccc(OC)cc1)C2 | 2% | -0.38 | 
15 | Cc1[nH]c2ccc(CNc3cncc(C(=O)N(C)C)n3)cc2c1C | -7% | 0.96 | 
16 | CCCCn1nc(Cn2cncn2)nc1CN1CCCC1=O | 2% | -0.38 | 
17 | Cc1cnc2c(c1)N(S(=O)(=O)c1cc(F)ccc1C)CCO2 | 11% | -2.13 | 
18 | CCOC1CC(NC(=O)N2CCCc3n[nH]cc32)C12CCOCC2 (stereo unspecified) | -5% | 0.66 | 
19 | N#Cc1ccccc1C(=O)N[C@H]1CCOC[C@@H]1Oc1cccc(F)c1 | -12% | 1.31 | 
20 | COCCNC(=O)[C@@H]1Cn2c(n[nH]c2=O)CN1C(=O)c1ccc(C)s1 | -17% | 2.03 | 
21 | CCOCC1CCN(C(=O)c2ccc(-c3ccc4c(c3)CCC4=O)cc2)CC1 | 6% | -1.06 | 
22 | CC1=C[C@@H](CN)[C@H](C(C)C)C[C@H]1Cc1nc2cccc(C)c2[nH]1 | -6% | 0.85 | 

Row | Compound | % Inhibition | Z score | % Inhibition (2 µM)
23 | O=C(Cc1ccsc1)N1CCN(c2cc(-n3cncn3)ncn2)CC1 | -16% | 2.03 | 
24 | CCOc1ccc(S(=O)(=O)N2CC(n3ccnn3)C2)cc1F | -18% | 2.85 | 
25 | Cc1ccc(-n2nc(C(=O)NCC3CC3)c(=O)n(Cc3ccccc3F)c2=O)cc1 | -10% | 1.41 | 
26 | CC(C)n1cc2cc(C(=O)N3CCN(CCC#N)CC3)sc2c1 | -2% | 0.38 | 
27 | Cc1nnsc1C(=O)N1CCC[C@H](Oc2cnccn2)C1 | -14% | 2.34 | 
28 | CC[C@@H]1Oc2ccc(NC(=O)Cc3ccc(F)cc3)cc2CN(Cc2ccccc2F)C1=O | -5% | 0.45 | 
29 | O=C(Nc1ccccc1)c1cccc(-n2ccnc2)n1 | 29% | -3.92 | 
30 | COC(=O)[C@@](C)(NCc1ccccn1)C1CC1 | -13% | 1.67 | 
31 | c1cn(CCCn2ccnc2-c2ccc(-c3cc[nH]n3)o2)cn1 | 6% | -1.19 | 
32 | C[C@H]1Cc2ccccc2N1Cc1nc(-c2cccnc2)no1 | -3% | 0.48 | 
33 | CCN(CC)C(=O)C1CCCN1C(=O)C1COc2ccccc2O1 (stereo unspecified) | 7% | -1.17 | 
34 | CC(C)N1CC[C@H](NC(=O)Nc2cc(C3CCC3)nn2C)C1=O | -2% | 0.15 | 
35 | O=C(O)[C@H]1CCCN1CC1CCOc2ccccc21 (stereo partly specified) | -6% | 1.27 | 
36 | Cc1nccc(OC2CCN(C(=O)COCc3ccccc3)CC2)n1 | 0% | -0.06 | 
37 | CC(C)N1CCN(c2nc(-c3ccccc3Cl)c3c(N)n(C)nc3n2)CC1 | -4% | 0.61 | 
38 | C[C@H](NC(=O)N(CCO)Cc1ccco1)C(=O)N(C)C | -7% | 1.01 | 
39 | CC(C)(NS(C)(=O)=O)c1noc(C2(c3ccccc3)CC2)n1 | -6% | 0.71 | 
40 | O=C1CN(CCOc2ccc(Cl)cc2Br)CCN1 | -4% | 0.54 | 
41 | CCCOC(=O)c1cc(NC(=O)c2ccc3ccccc3c2)ccc1N1CCOCC1 | 35% | -4.02 | 
42 | NCC1(C(=O)N2CCn3c(Cc4cccc(F)c4)nnc3C2)CCCC1 | -6% | 0.85 | 
43 | Clc1snnc1CN1CC[C@H](OCCCc2ccccc2)C1 | -6% | 0.62 | 
44 | COc1nc(C)c(-c2ccc(S(C)(=O)=O)cc2)c(C)c1C#N | 6% | -0.87 | 

Row | Compound | % Inhibition | Z score | % Inhibition (2 µM)
45 | CCOC(=O)Cc1cccc(NC(=O)[C@@H]2CCCCN2C(C)=O)c1 | -3% | 0.64 | 
46 | O=C(c1cccc(F)c1)N1CCN(c2cc(N3CCCC3)ncn2)CC1 | -25% | 2.24 | 
47 | C#CCN(CC#CC)S(=O)(=O)c1cccs1 | -8% | 1.1 | 
48 | O=C1NC2(CCCC2)C(=O)N1CN1CCc2ccccc2C1 | 19% | -2.17 | 
49 | NC(=O)N1CCC(N[C@H]2CCc3c(Cl)cc(Cl)cc32)CC1 | -13% | 1.46 | 
50 | OC(CNC(c1ccccc1)c1ccc(F)cn1)c1ccco1 (stereo unspecified) | -10% | 1.36 | 
51 | Cc1noc2ncnc(NCC(C)(C)CS(C)(=O)=O)c12 | -15% | 2.89 | 
52 | CCO[C@H]1COC[C@@H]1NC(=O)c1cn2cccc(C)c2n1 | -12% | 2.37 | 
53 | CCn1cc(S(=O)(=O)Nc2ccc3ncccc3c2)cn1 | -12% | 1.41 | 
54 | CC(C)CCn1c(=O)c2sccc2n(CC(=O)N(C)C2CCCCC2)c1=O | 8% | -1.31 | 
55 | CCNC(=O)c1ccc(CN2CCC(Cc3ccccc3)CC2)o1 | -9% | 1.48 | 
56 | N#CCN1CCC(CNC(=O)c2ccnc(OC3CCC3)c2)CC1 | -4% | 0.58 | 
57 | O=C(c1ccc2c(c1)OCO2)[C@H]1CCCN(Cc2ccc3cccc(F)c3n2)C1 | -2% | 0.28 | 
58 | Cc1cnc(C2CC2)n1CCNC(=O)C1CC=CC1 | -4% | 0.85 | 
59 | C=CCC(C)(CC=C)NS(=O)(=O)c1ccc(C)cc1 | -7% | 1.18 | 
60 | CCc1nocc1CN(C)C(=O)[C@@H]1CCCN1c1nccs1 | -3% | 0.47 | 
61 | O=C1C[C@H](c2cccc(F)c2)c2sc(N3CCCCC3)nc2N1 | -4% | 0.47 | 
62 | CCN(C(=O)C1CCN(S(=O)(=O)c2c(C)[nH]c(C)c2C(=O)N2CCCCC2)CC1)c1ccccc1 | 0% | -0.04 | 
63 | CC(C)CNC(=O)[C@H]1CC(=O)N(c2ccc(OCC(=O)NCc3ccccc3)cc2)C1 | -3% | 0.33 | 
64 | Cc1ccc(CNC2CCCCCC2)s1 | -12% | 1.77 | 
65 | CN(c1nc2c(s1)CCCC2)S(C)(=O)=O | 30% | -3.9 | 
66 | COc1ccc(F)c(F)c1CN(C)[C@@H](C)c1ccncn1 | -4% | 0.47 | 

Row | Compound | % Inhibition | Z score | % Inhibition (2 µM)
67 | CC(C)N(CC1CCC1)C(=O)NCc1cc2c(cc1OC(F)F)OCO2 | -10% | 1.44 | 
68 | Cn1ccc2ccc(CCC(=O)NC(C)(C)C)cc21 | 16% | -1.79 | 
69 | O=C1CCCN1CCc1noc([C@H]2C[C@@H]3C=C[C@H]2C3)n1 | -25% | 3.21 | 
70 | Cc1ccc(Cl)c(CNCCN2CCC[C@H](CO)C2)c1F | 1% | -0.16 | 
71 | Cc1nc(-c2ccc(NC(=O)C3CCN(S(=O)(=O)c4cc(Cl)ccc4Cl)CC3)cc2)co1 | -4% | 0.61 | 
72 | CC(=O)N1CC[C@H](CN(C)C(=O)Nc2ccn(CCC(C)C)n2)C1 | -11% | 1.43 | 
73 | N#Cc1ccccc1OC/C=C/COc1ccccc1C#N | -43% | 5.01 | 
74 | c1ccc2nc(N3CC(c4ncc(C5CC5)cn4)C3)cnc2c1 | -1% | 0.18 | 
75 | Cc1ccc(C)c(NS(=O)(=O)c2ccc(NC(=O)c3ccc(CN4CCOCC4)cc3)cc2)c1 | -7% | 0.88 | 
76 | CCN1CCN(C(=O)C[C@H](c2cccc(Cl)c2)c2c[nH]c3ccc(Cl)cc23)CC1 | -12% | 1.51 | 
77 | CCNc1nc(C)c(C(=O)N(C)Cc2cc(-c3cccs3)n[nH]2)s1 | 9% | -1.66 | 
78 | Cc1nc(-c2noc([C@@]34CCCC[C@@H]3NCC4)n2)co1 | 0% | -0.03 | 
79 | C[C@@H](CNC(=O)c1coc(CN2CCN(c3ncccn3)CC2)n1)c1ccccc1 | -13% | 1.51 | 
80 | Cc1cccc(OCCN2C(=O)N[C@@]3(CCCCc4ccccc43)C2=O)c1 | 4% | -0.78 | 
81 | O=C1O[C@H]2CN(c3ncnc4[nH]cnc34)C[C@H]2N1CCN1CCCCC1 | -4% | 0.39 | 
82 | C#CCNC(=O)[C@H](C)Nc1ccn(CC(F)(F)F)n1 | -10% | 1.01 | 
83 | Cc1cccnc1[C@H](C)NS(=O)(=O)CC(C)C | 0% | 0 | 
84 | Cc1ccc(NC(=O)CCn2nnc3cc(C(=O)NCc4ccc(C)c(C)c4)ccc32)cc1 | -4% | 0.63 | 
85 | C[C@@H](CNc1ccccc1)NC(=O)CCc1ccccn1 | -9% | 1.7 | 
86 | Cc1ccc(C(=O)Nc2ccc(N3CCN(c4c(F)c(F)c(F)c(F)c4F)CC3)cc2)c(Cl)c1 | 29% | -0.73 | 
